In paper PMC12820563, “FoxP3 forms a head-to-head dimer in vivo and stabilizes its multimerization on adjacent microsatellites”:
The other results are listed elsewhere or left out.

What follows are sequences tested against T1, MBP-FoxP1dN (Mus musculus, UniProt P58462 326-579) (assay: PD-seq (MBP pull-down with sequencing); 20 mM Tris-HCl pH 7.5, 100 mM NaCl, 1.5 mM MgCl2, 0.4 uM protein, 0.1 uM dsDNA library, 30 min, room temperature, amylose pull-down; high values mean tight binding). Conditions: protein: recombinant; tags: His6-MBP; chain copies: 2; dsDNA, one strand shown.
T1 sequence: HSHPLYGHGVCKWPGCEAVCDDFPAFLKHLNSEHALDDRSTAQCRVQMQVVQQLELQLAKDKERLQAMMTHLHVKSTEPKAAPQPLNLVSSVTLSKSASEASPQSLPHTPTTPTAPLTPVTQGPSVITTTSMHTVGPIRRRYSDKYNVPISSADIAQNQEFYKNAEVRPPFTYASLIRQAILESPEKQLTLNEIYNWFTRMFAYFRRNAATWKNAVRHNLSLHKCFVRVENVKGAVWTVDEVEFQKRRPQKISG
How it was run: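 In Tris pH 7.5 buffer with NaCl and MgCl2, 0.4 µM His6-MBP-tagged mouse FoxP3 or FoxP1 fragment lacking the N-terminus, from E. coli, met 0.1 µM Klenow-filled double-stranded degenerate DNA library for 30 min at room temperature. Three washes on amylose resin followed capture of the complexes, then proteinase K release of DNA, PCR barcoding and Illumina sequencing. Binding is taken as pooled-replicate reads-per-million enrichment of pull-down relative to input.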

| Sequence | binding signal |
| --- | --- |
| GATGATTGTTCTCCCAGCTGATGAATTAGTACAGTCGAGTAAACAAATTTTCCTAATCTTTCTGTTCAAGCGCCATCTAC | 1.03 RPM ratio (pull-down/input) |
| GATGATTGTTCTCCCAGCTGATGAATTGTCGCATTCGAGTAAACAAATTTTCCTAATCTTTCTGTTCAAGCGCCATCTAC | 1.31 RPM ratio (pull-down/input) |
| GATGATTGTTCTCCCAGCTGATGAATTTCAGTCATCGAGTAAACAAATTTTCCTAATCTTTCTGTTCAAGCGCCATCTAC | 1 RPM ratio (pull-down/input) |
| GATGATTGTTCTCCCAGCTGATGAATTTAGTCGATCGAGTAAACAAATTTTCCTAATCTTTCTGTTCAAGCGCCATCTAC | 1.04 RPM ratio (pull-down/input) |
| GATGATTGTTCTCCCAGCTGATGAATTCATCACCTCGAGTAAACAAATTTTCCTAATCTTTCTGTTCAAGCGCCATCTAC | 1 RPM ratio (pull-down/input) |
| GATGATTGTTCTCCCAGCTGATGAATTAACGTTATCGAGTAAACAAATTTTCCTAATCTTTCTGTTCAAGCGCCATCTAC | 1.08 RPM ratio (pull-down/input) |
| GATGATTGTTCTCCCAGCTGATGAATTAGGATCGTCGAGTAAACAAATTTTCCTAATCTTTCTGTTCAAGCGCCATCTAC | 0.818 RPM ratio (pull-down/input) |
| GATGATTGTTCTCCCAGCTGATGAATTTGTCGGATCGAGTAAACAAATTTTCCTAATCTTTCTGTTCAAGCGCCATCTAC | 0.944 RPM ratio (pull-down/input) |
| GATGATTGTTCTCCCAGCTGATGAATTCTCACTCTCGAGTAAACAAATTTTCCTAATCTTTCTGTTCAAGCGCCATCTAC | 0.84 RPM ratio (pull-down/input) |
| GATGATTGTTCTCCCAGCTGATGAATTTCTAACCTCGAGTAAACAAATTTTCCTAATCTTTCTGTTCAAGCGCCATCTAC | 0.836 RPM ratio (pull-down/input) |
| GATGATTGTTCTCCCAGCTGATGAATTCACCCAGTCGAGTAAACAAATTTTCCTAATCTTTCTGTTCAAGCGCCATCTAC | 0.813 RPM ratio (pull-down/input) |
| GATGATTGTTCTCCCAGCTGATGAATTCCCAGCATCGAGTAAACAAATTTTCCTAATCTTTCTGTTCAAGCGCCATCTAC | 0.962 RPM ratio (pull-down/input) |
| GATGATTGTTCTCCCAGCTGATGAATTAACAGATTCGAGTAAACAAATTTTCCTAATCTTTCTGTTCAAGCGCCATCTAC | 0.964 RPM ratio (pull-down/input) |
| GATGATTGTTCTCCCAGCTGATGAATTATTCCCCTCGAGTAAACAAATTTTCCTAATCTTTCTGTTCAAGCGCCATCTAC | 0.896 RPM ratio (pull-down/input) |
| GATGATTGTTCTCCCAGCTGATGAATTTCCCAGTTCGAGTAAACAAATTTTCCTAATCTTTCTGTTCAAGCGCCATCTAC | 0.864 RPM ratio (pull-down/input) |
| GATGATTGTTCTCCCAGCTGATGAATTCGGTCGTTCGAGTAAACAAATTTTCCTAATCTTTCTGTTCAAGCGCCATCTAC | 0.868 RPM ratio (pull-down/input) |
| GATGATTGTTCTCCCAGCTGATGAATTGGCGATCTCGAGTAAACAAATTTTCCTAATCTTTCTGTTCAAGCGCCATCTAC | 0.778 RPM ratio (pull-down/input) |
| GATGATTGTTCTCCCAGCTGATGAATTGGTTGAATCGAGTAAACAAATTTTCCTAATCTTTCTGTTCAAGCGCCATCTAC | 1.01 RPM ratio (pull-down/input) |
| GATGATTGTTCTCCCAGCTGATGAATTCTACAACTCGAGTAAACAAATTTTCCTAATCTTTCTGTTCAAGCGCCATCTAC | 0.871 RPM ratio (pull-down/input) |
| GATGATTGTTCTCCCAGCTGATGAATTTATGGGGTCGAGTAAACAAATTTTCCTAATCTTTCTGTTCAAGCGCCATCTAC | 0.971 RPM ratio (pull-down/input) |
| GATGATTGTTCTCCCAGCTGATGAATTTGTAATCTCGAGTAAACAAATTTTCCTAATCTTTCTGTTCAAGCGCCATCTAC | 1.23 RPM ratio (pull-down/input) |

| Sequence | binding signal |
| --- | --- |
| GATGATTGTTCTCCCAGCTGATGAATTTTCACGATCGAGTAAACAAATTTTCCTAATCTTTCTGTTCAAGCGCCATCTAC | 0.874 RPM ratio (pull-down/input) |
| GATGATTGTTCTCCCAGCTGATGAATTGCACTTGTCGAGTAAACAAATTTTCCTAATCTTTCTGTTCAAGCGCCATCTAC | 1.19 RPM ratio (pull-down/input) |
| GATGATTGTTCTCCCAGCTGATGAATTTCGCCACTCGAGTAAACAAATTTTCCTAATCTTTCTGTTCAAGCGCCATCTAC | 0.882 RPM ratio (pull-down/input) |
| GATGATTGTTCTCCCAGCTGATGAATTCGATCTTTCGAGTAAACAAATTTTCCTAATCTTTCTGTTCAAGCGCCATCTAC | 0.775 RPM ratio (pull-down/input) |
| GATGATTGTTCTCCCAGCTGATGAATTCTATTTTTCGAGTAAACAAATTTTCCTAATCTTTCTGTTCAAGCGCCATCTAC | 1.61 RPM ratio (pull-down/input) |
| GATGATTGTTCTCCCAGCTGATGAATTAACGTACTCGAGTAAACAAATTTTCCTAATCTTTCTGTTCAAGCGCCATCTAC | 0.897 RPM ratio (pull-down/input) |
| GATGATTGTTCTCCCAGCTGATGAATTCCCTGAATCGAGTAAACAAATTTTCCTAATCTTTCTGTTCAAGCGCCATCTAC | 0.844 RPM ratio (pull-down/input) |
| GATGATTGTTCTCCCAGCTGATGAATTAGCCGTATCGAGTAAACAAATTTTCCTAATCTTTCTGTTCAAGCGCCATCTAC | 0.934 RPM ratio (pull-down/input) |
| GATGATTGTTCTCCCAGCTGATGAATTATTGTGCTCGAGTAAACAAATTTTCCTAATCTTTCTGTTCAAGCGCCATCTAC | 1.52 RPM ratio (pull-down/input) |
| GATGATTGTTCTCCCAGCTGATGAATTTGCTCGCTCGAGTAAACAAATTTTCCTAATCTTTCTGTTCAAGCGCCATCTAC | 0.816 RPM ratio (pull-down/input) |
| GATGATTGTTCTCCCAGCTGATGAATTTCACTCTTCGAGTAAACAAATTTTCCTAATCTTTCTGTTCAAGCGCCATCTAC | 0.814 RPM ratio (pull-down/input) |
| GATGATTGTTCTCCCAGCTGATGAATTGTCCTGGTCGAGTAAACAAATTTTCCTAATCTTTCTGTTCAAGCGCCATCTAC | 0.988 RPM ratio (pull-down/input) |
| GATGATTGTTCTCCCAGCTGATGAATTTCTTATTTCGAGTAAACAAATTTTCCTAATCTTTCTGTTCAAGCGCCATCTAC | 1.07 RPM ratio (pull-down/input) |
| GATGATTGTTCTCCCAGCTGATGAATTGGCGTCTTCGAGTAAACAAATTTTCCTAATCTTTCTGTTCAAGCGCCATCTAC | 0.91 RPM ratio (pull-down/input) |
| GATGATTGTTCTCCCAGCTGATGAATTCCTTCATTCGAGTAAACAAATTTTCCTAATCTTTCTGTTCAAGCGCCATCTAC | 0.85 RPM ratio (pull-down/input) |
| GATGATTGTTCTCCCAGCTGATGAATTTAGATCCTCGAGTAAACAAATTTTCCTAATCTTTCTGTTCAAGCGCCATCTAC | 0.952 RPM ratio (pull-down/input) |
| GATGATTGTTCTCCCAGCTGATGAATTATATAGCTCGAGTAAACAAATTTTCCTAATCTTTCTGTTCAAGCGCCATCTAC | 0.971 RPM ratio (pull-down/input) |
| GATGATTGTTCTCCCAGCTGATGAATTTGAATTTTCGAGTAAACAAATTTTCCTAATCTTTCTGTTCAAGCGCCATCTAC | 0.948 RPM ratio (pull-down/input) |
| GATGATTGTTCTCCCAGCTGATGAATTTATAGGATCGAGTAAACAAATTTTCCTAATCTTTCTGTTCAAGCGCCATCTAC | 1.08 RPM ratio (pull-down/input) |
| GATGATTGTTCTCCCAGCTGATGAATTTACGCCATCGAGTAAACAAATTTTCCTAATCTTTCTGTTCAAGCGCCATCTAC | 1.21 RPM ratio (pull-down/input) |
| GATGATTGTTCTCCCAGCTGATGAATTTTGTCTATCGAGTAAACAAATTTTCCTAATCTTTCTGTTCAAGCGCCATCTAC | 1.36 RPM ratio (pull-down/input) |

| Sequence | binding signal |
| --- | --- |
| GATGATTGTTCTCCCAGCTGATGAATTCTGGGAGTCGAGTAAACAAATTTTCCTAATCTTTCTGTTCAAGCGCCATCTAC | 0.797 RPM ratio (pull-down/input) |
| GATGATTGTTCTCCCAGCTGATGAATTTCGTTGCTCGAGTAAACAAATTTTCCTAATCTTTCTGTTCAAGCGCCATCTAC | 0.942 RPM ratio (pull-down/input) |
| GATGATTGTTCTCCCAGCTGATGAATTGTCGACCTCGAGTAAACAAATTTTCCTAATCTTTCTGTTCAAGCGCCATCTAC | 0.877 RPM ratio (pull-down/input) |
| GATGATTGTTCTCCCAGCTGATGAATTCGGGAGATCGAGTAAACAAATTTTCCTAATCTTTCTGTTCAAGCGCCATCTAC | 0.825 RPM ratio (pull-down/input) |
| GATGATTGTTCTCCCAGCTGATGAATTGCTGAATTCGAGTAAACAAATTTTCCTAATCTTTCTGTTCAAGCGCCATCTAC | 1.05 RPM ratio (pull-down/input) |
| GATGATTGTTCTCCCAGCTGATGAATTAAGTCCGTCGAGTAAACAAATTTTCCTAATCTTTCTGTTCAAGCGCCATCTAC | 0.896 RPM ratio (pull-down/input) |
| GATGATTGTTCTCCCAGCTGATGAATTGATAGAGTCGAGTAAACAAATTTTCCTAATCTTTCTGTTCAAGCGCCATCTAC | 0.901 RPM ratio (pull-down/input) |
| GATGATTGTTCTCCCAGCTGATGAATTGGTATGCTCGAGTAAACAAATTTTCCTAATCTTTCTGTTCAAGCGCCATCTAC | 1.03 RPM ratio (pull-down/input) |
| GATGATTGTTCTCCCAGCTGATGAATTTGTAGGATCGAGTAAACAAATTTTCCTAATCTTTCTGTTCAAGCGCCATCTAC | 1.02 RPM ratio (pull-down/input) |
| GATGATTGTTCTCCCAGCTGATGAATTACAATGCTCGAGTAAACAAATTTTCCTAATCTTTCTGTTCAAGCGCCATCTAC | 1.43 RPM ratio (pull-down/input) |
| GATGATTGTTCTCCCAGCTGATGAATTTGTTGCATCGAGTAAACAAATTTTCCTAATCTTTCTGTTCAAGCGCCATCTAC | 1.84 RPM ratio (pull-down/input) |
| GATGATTGTTCTCCCAGCTGATGAATTGTCGCCATCGAGTAAACAAATTTTCCTAATCTTTCTGTTCAAGCGCCATCTAC | 1.03 RPM ratio (pull-down/input) |
| GATGATTGTTCTCCCAGCTGATGAATTCTTGCCTTCGAGTAAACAAATTTTCCTAATCTTTCTGTTCAAGCGCCATCTAC | 0.923 RPM ratio (pull-down/input) |
| GATGATTGTTCTCCCAGCTGATGAATTAGCTGCTTCGAGTAAACAAATTTTCCTAATCTTTCTGTTCAAGCGCCATCTAC | 0.894 RPM ratio (pull-down/input) |
| GATGATTGTTCTCCCAGCTGATGAATTAGATTGGTCGAGTAAACAAATTTTCCTAATCTTTCTGTTCAAGCGCCATCTAC | 0.947 RPM ratio (pull-down/input) |
| GATGATTGTTCTCCCAGCTGATGAATTCAACTGTTCGAGTAAACAAATTTTCCTAATCTTTCTGTTCAAGCGCCATCTAC | 0.939 RPM ratio (pull-down/input) |
| GATGATTGTTCTCCCAGCTGATGAATTCCACACCTCGAGTAAACAAATTTTCCTAATCTTTCTGTTCAAGCGCCATCTAC | 0.826 RPM ratio (pull-down/input) |
| GATGATTGTTCTCCCAGCTGATGAATTGCTTTATTCGAGTAAACAAATTTTCCTAATCTTTCTGTTCAAGCGCCATCTAC | 1.19 RPM ratio (pull-down/input) |
| GATGATTGTTCTCCCAGCTGATGAATTGTTTCATTCGAGTAAACAAATTTTCCTAATCTTTCTGTTCAAGCGCCATCTAC | 1.23 RPM ratio (pull-down/input) |
| GATGATTGTTCTCCCAGCTGATGAATTATGGACATCGAGTAAACAAATTTTCCTAATCTTTCTGTTCAAGCGCCATCTAC | 1.04 RPM ratio (pull-down/input) |
| GATGATTGTTCTCCCAGCTGATGAATTATTTCCTTCGAGTAAACAAATTTTCCTAATCTTTCTGTTCAAGCGCCATCTAC | 1.04 RPM ratio (pull-down/input) |
